Variants at the floor of the assay are shown more often than the library holds them.
B1: TPR 5TU (parent)
chain: GGAUCUUCUCGAUCUAACAAAAAAGACAAAUCUGCCACAAAGCUUGAGAGCAUCUUCGGAUGCAGAGGCGGCAGCCUUCGGUGGCGCGAUAGCGCCAACGUUCUCAACUAUGACACGCAAAACGCGUGCUCCGUUGAAUGGAGUUUAUCAUG

Variants of: B1
Test: polymerase ribozyme fitness, log enrichment relative to wild type (log ratio); higher = more active; in vitro selection for triplet polymerase activity
In short: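 The heterodimeric triplet polymerase ribozyme's subunits were each mutagenized into PCR-built libraries and transcribed. Every library was selected once, in triplicate, by annealing with a biotinylated primer, the partner subunit and triplets, incubating frozen at −7 °C, gel-excising extended constructs, capturing on streptavidin beads and running RT-PCR. Input and output libraries were Illumina-sequenced, with genotypes kept only at ≥10 input reads and ≥1 read per output. Fitness, from inverse-variance-weighted replicate averages, is the base-2 logarithm of genotype enrichment over wild-type enrichment.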

Variant | polymerase ribozyme fitness (log ratio)
A16U A30C A52G C96G C103G U144G | ≤ -4.2
A16G C54U | -0.601
A16G C35G U53A C57U G84U C105G A150U | ≤ -4.2
A16U A20G C85A A138U | ≤ -4.2
C14U A39U G86U A106G | ≤ -4.2
C14U G92C A150U | -4.2
A16U A28U A37C G42U U56A C95A | ≤ -4.2
U15A U55A U56A C69U C79U G86A A91U G133A G141A | ≤ -4.2
A16G A40G G59U C93A C103G | ≤ -4.2
A16U A29U G48U G92A C95U G152U | ≤ -4.2
C14U G48A A64C U90C U102G C103G A115G A122G U127A A150C | ≤ -4.2
A16U C32U A66G C75U G92U C99A C125G G136U G141U | ≤ -4.2
A16G A24C A49G A52C A122C | ≤ -4.2
A16C G48U C54A A64G | ≤ -4.2
C14U C36U A41U C85U C87U C116A | ≤ -4.2
A16C A40U A137C | ≤ -4.2
U15G A24C C35A A107U A147U | ≤ -4.2
C14U A49G A73U A89G C93A | ≤ -4.2
A16G C76G G88C | ≤ -4.2
A16U A40G U44A G71C C85A G141A G143U | ≤ -4.2
A16C U44G A47G C51A A60C U77A | ≤ -4.2

Variant | polymerase ribozyme fitness (log ratio)
U15A C38U G58A U61G G68A G83A C87G A106C U145C | ≤ -4.2
A16U A29C C35U A41C G86A A98U C114U G141U U145G | ≤ -4.2
C14U G59A C96G C131G G133U | ≤ -4.2
A16C U31G U61A A122G G143U | ≤ -4.2
C14U G48C U61A U82G G92A C96G G152U | ≤ -4.2
C14U G67A U151C | ≤ -4.2
A16G A20U C32A U45A A47C G83C C93G G140A | ≤ -4.2
U15G A24G A52C G86C C105G | ≤ -4.2
U15A A24G C85U A107C U111A U135A | ≤ -4.2
U15C A22G G42A G84A G133U | ≤ -4.2
A16C A60U C72U G100U C125U C129U | ≤ -4.2
A16C G112U A150U | ≤ -4.2
U15G A17G A41U C87U A121U U127A | ≤ -4.2
A16C C32U A122G | -3.01
A16G C93G | -4.02
U15C A28C C85G A120G A137G G143C U146G | ≤ -4.2
U15A G59U C79G C93A U134A | ≤ -4.2
A16U A30G C35U U55C C79A U90G C93U | ≤ -4.2
U15A C18G C87A A97G A142C | ≤ -4.2
A16U A21U A26C A29C A89U U101A A107C A120G | ≤ -4.2
A16G A24U C35A U61A C75A G124C G126U | ≤ -4.2

Variant | polymerase ribozyme fitness (log ratio)
A16C A21C C57A G88U C103G U130G | ≤ -4.2
C14U U15C A23U A41U C85A | ≤ -4.2
A16G C43A C57G G59U G70U G88U C99U A107G | ≤ -4.2
A16G G126A G143A | -3.34
A16C U45G A106G | -0.613
U15C G50C G88A C105U C129U | ≤ -4.2
U15G C99U A142U | -1.77
A16C A20C A41C C85G C116U | -3.81
A16G A40C U77A C87U G133A G152U | ≤ -4.2
C14U C43G G48U G92A G136U | ≤ -4.2
A16U A30C A47G G58A U111A | ≤ -4.2
A16C A29U A41U G50C U135G G140C U148C | ≤ -4.2
A16C G83A G94A | -2.79
U15C C51A G86U | -1.6
A16G U33G C35G C87A | ≤ -4.2
A16U C43U U77G C85A G117A | ≤ -4.2
U15A C63U U151A | -3.9
U15A | -0.182
U15C | 0.917
U15G | -0.334
C14U G46A C79G A89G C95G A97C U111A | ≤ -4.2

Variant | polymerase ribozyme fitness (log ratio)
U15G A16U U53A G59C A60G C87G C95A C96U | ≤ -4.2
A16G A20C C69G C149G | -4.02
U15A G46C G92U C93A A113U U139G | ≤ -4.2
C14U C35A C36G C38U C87G G126C C131G | ≤ -4.2
A16C C18G A20G A30U G58C A64G C75G C93G C132G | ≤ -4.2
U15C A39C U44C C93U C108G A121C U139G | ≤ -4.2
A16G A22U C35A G42A G68U G83U G94C A98C G143U | ≤ -4.2
A16G A29C A40U A52C G83A C85U | ≤ -4.2
A16U A39U A73G U77G C93A | ≤ -4.2
U15G G48U C54U C123A G136U | -2.93
A16C G34U C93U C105U G112A | ≤ -4.2
U15G A73U C93U A120G | -2.43
A16C A24G A73C A121G | ≤ -4.2
A16C G50C A64G C85A G92C G143A | ≤ -4.2
A16C C27A C85G C99U A106C | ≤ -4.2
A16C A21G C54A C95A | -3.07
C14U G50C U55A G86U C105G G117C | ≤ -4.2
U15G A29U G100C C118A C123A G133U A142U | ≤ -4.2
U15G G62A G83C C108U C125G | ≤ -4.2
U15G C57A C75U U78G C93U C108U A110G | ≤ -4.2
C14U C96A | -1.59

Source: the RNAGym collection of RNA variant scans (doi:10.1073/pnas.2313332121)
